{
  "source": "PubChem BioAssay AID504333",
  "about": "(National Center for Advancing Translational Sciences (NCATS), 2011)",
  "note": "The whole screen tested about 360,000 compounds, of which about 16,000 (4.4%) were called active. The inconclusive results got no clear call from the source; some entries with a clear call stand among them for comparison. Calls follow the shape of the dose curve; as a rule, active = well fitted inhibition curve with a large enough effect; inconclusive = small, poorly fitted or top-dose-only effect; inactive = no such curve, though single readings can be large or run the other way. Potencies beside an inconclusive call are fits to weak or partial responses and may not hold up. Potency is read from the fitted curve at half-maximal effect; tags tell the direction and shape of the fitted curve.",
  "data": [
    {"target": "Bromodomain adjacent to zinc finger domain protein 2B (Homo sapiens) (UniProt Q9UIF8)", "sequence (Q9UIF8 whole entry, looked up, the tested form may be a part)": "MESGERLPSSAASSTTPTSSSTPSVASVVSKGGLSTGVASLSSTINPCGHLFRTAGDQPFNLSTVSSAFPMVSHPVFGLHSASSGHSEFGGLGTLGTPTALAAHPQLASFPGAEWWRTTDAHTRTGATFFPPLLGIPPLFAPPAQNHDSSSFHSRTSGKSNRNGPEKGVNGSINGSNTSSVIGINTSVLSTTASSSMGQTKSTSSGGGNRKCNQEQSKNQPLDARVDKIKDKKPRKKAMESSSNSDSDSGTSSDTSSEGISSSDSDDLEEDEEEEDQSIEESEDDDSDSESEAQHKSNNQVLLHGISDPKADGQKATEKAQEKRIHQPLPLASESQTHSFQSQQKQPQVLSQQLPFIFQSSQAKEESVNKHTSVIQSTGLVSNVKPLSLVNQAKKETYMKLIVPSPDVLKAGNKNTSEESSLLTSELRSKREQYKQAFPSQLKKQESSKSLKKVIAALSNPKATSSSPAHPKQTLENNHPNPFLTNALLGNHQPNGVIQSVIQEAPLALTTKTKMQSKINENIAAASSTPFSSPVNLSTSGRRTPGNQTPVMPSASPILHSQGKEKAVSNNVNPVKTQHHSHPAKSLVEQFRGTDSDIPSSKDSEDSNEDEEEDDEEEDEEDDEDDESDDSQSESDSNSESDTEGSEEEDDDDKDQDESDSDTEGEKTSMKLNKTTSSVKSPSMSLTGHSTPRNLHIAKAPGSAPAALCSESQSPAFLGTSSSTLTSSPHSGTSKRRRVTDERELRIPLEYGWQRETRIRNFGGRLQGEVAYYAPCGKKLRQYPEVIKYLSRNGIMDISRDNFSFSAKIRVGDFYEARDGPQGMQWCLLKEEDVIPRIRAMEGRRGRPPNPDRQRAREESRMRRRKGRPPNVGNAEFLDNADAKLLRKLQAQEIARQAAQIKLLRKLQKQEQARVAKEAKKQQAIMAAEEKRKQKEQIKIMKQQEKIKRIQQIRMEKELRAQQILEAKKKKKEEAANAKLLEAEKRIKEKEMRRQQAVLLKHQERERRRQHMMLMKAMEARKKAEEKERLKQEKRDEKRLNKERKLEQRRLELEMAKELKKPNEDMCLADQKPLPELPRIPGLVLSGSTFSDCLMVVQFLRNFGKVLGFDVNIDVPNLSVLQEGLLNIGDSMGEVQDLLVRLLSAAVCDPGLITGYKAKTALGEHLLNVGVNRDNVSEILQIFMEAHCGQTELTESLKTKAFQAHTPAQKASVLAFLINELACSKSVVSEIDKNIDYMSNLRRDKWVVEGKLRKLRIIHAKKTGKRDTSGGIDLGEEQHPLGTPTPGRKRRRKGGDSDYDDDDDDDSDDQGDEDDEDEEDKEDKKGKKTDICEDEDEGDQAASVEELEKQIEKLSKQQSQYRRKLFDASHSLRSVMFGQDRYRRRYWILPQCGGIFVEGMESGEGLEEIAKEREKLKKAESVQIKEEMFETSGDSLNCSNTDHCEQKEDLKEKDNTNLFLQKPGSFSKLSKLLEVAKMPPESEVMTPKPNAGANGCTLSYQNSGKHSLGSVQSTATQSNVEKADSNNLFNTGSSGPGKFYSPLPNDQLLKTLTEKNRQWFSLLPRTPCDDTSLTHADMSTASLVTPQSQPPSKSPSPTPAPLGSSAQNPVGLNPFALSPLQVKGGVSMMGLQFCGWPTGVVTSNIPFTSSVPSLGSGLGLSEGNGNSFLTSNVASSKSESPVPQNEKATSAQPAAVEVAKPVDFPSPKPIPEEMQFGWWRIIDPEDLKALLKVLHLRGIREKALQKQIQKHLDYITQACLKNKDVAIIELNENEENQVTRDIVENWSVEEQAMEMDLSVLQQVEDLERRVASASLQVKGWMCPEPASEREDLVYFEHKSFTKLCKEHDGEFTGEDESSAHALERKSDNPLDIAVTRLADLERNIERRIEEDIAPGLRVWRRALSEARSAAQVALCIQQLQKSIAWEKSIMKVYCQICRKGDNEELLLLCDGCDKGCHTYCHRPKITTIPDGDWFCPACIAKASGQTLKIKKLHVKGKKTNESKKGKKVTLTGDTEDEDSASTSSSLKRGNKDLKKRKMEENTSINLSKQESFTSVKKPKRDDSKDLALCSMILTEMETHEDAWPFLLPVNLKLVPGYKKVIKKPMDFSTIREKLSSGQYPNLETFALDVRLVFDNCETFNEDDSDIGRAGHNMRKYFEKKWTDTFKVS", "test": "qHTS Assay for Inhibitors of BAZ2B; also: nearly all actives have a fitted effect of over 60% in size", "conditions": "AlphaScreen BAZ2B-H3K14Ac peptide displacement; series mostly up to 114 µM", "in_short": "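Complex of BAZ2B and biotin-H3K14Ac (50 nM apiece) forms over 30 min at RT, then faces library compounds up to 110 uM for another 30 min; AlphaScreen beads added, 20 min dark incubation, luminescence read.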", "values": [
      {"smiles": "O=C1CS/C(=N\\C(=O)N2c3ccccc3Sc3ccccc32)N1", "Potency": "inconclusive: 79.4 µM [inhibitor, single point]"},
      {"smiles": "CCCCOP(=O)(c1ccc(N(C)C)cc1)C(O)c1ccc(N(C)C)cc1", "note": "(stereo not given)", "Potency": "inconclusive: 50.1 µM [inhibitor, partial curve]"},
      {"smiles": "O=C(Nc1ccc(O)c(-c2nc3ccccc3o2)c1)c1sc2ccccc2c1Cl", "Potency": "inconclusive: 89.1 µM [inhibitor, single point]"},
      {"smiles": "CN(C)CCCN(C(=O)c1ccc([N+](=O)[O-])s1)c1nc2cc3c(cc2s1)OCCO3", "Potency": "inconclusive: 39.8 µM [inhibitor, partial curve]"},
      {"smiles": "COc1ccccc1N1CCN(C(=O)c2cn(CC(C)C)c(=O)c3c2c2ccccc2n3C)CC1", "Potency": "inactive"},
      {"smiles": "COc1ccc(CNS(=O)(=O)c2cc(CN3C(=O)c4cccnc4C3=O)ccc2OC)cc1", "Potency": "inconclusive: 79.4 µM [inhibitor, single point]"},
      {"smiles": "O=C(CSCc1cnn(-c2ccccc2)c1-n1cccc1)NCc1ccc(Cl)cc1", "Potency": "inconclusive: 89.1 µM [inhibitor, single point]"},
      {"smiles": "CCN(CC)CCCNc1oc(-c2ccc(OC)c(OC)c2)nc1C#N", "Potency": "inconclusive: 89.1 µM [inhibitor, single point]"},
      {"smiles": "COc1ccc(C2CC(C)(c3ccc(OC)cc3OC)Nc3ccccc3N2)c(OC)c1", "note": "(stereo not given)", "Potency": "inactive"},
      {"smiles": "COc1ccc(N2CCN(C(c3ccccc3)c3sc4nc(-c5ccco5)nn4c3O)CC2)cc1", "note": "(stereo not given)", "Potency": "inconclusive: 50.1 µM [inhibitor, partial curve]"},
      {"smiles": "CCOc1ccc(NC2=NCCC(=O)N2Cc2cccs2)cc1", "Potency": "inconclusive: 89.1 µM [inhibitor, single point]"},
      {"smiles": "COc1ccc(S(=O)(=O)N2CCCOC2CNC(=O)C(=O)NCCc2ccco2)cc1", "note": "(stereo not given)", "Potency": "inactive"},
      {"smiles": "O=C(Nc1ncc2c(n1)CC(c1cccc(Cl)c1)CC2=O)c1ccco1", "note": "(stereo not given)", "Potency": "inconclusive: 79.4 µM [inhibitor, single point]"},
      {"smiles": "CCN1C(=O)/C(=C2/C=Cc3ccccc3N2CC)SC1=S", "Potency": "active: 7.94 µM"},
      {"smiles": "CCOC(=O)N1CCN(C2=C(NS(=O)(=O)c3ccc(NC(C)=O)cc3)C(=O)c3ccccc3C2=O)CC1", "Potency": "active: 44.7 µM"},
      {"smiles": "COc1cc(C2C(C(C)=O)=C(O)C(=O)N2CCc2ccc(OC)c(OC)c2)ccc1O", "note": "(stereo not given)", "Potency": "inconclusive: 89.1 µM [inhibitor, single point]"},
      {"smiles": "CSC1=N/C(=C\\c2ccc(C)o2)C(=O)S1", "Potency": "active: 44.7 µM"},
      {"smiles": "CC1(C)CC(=O)c2cc(OCC(=O)NCCCN3CCN(c4ccc(F)cc4)CC3)ccc2O1", "Potency": "inconclusive: 44.7 µM [inhibitor, partial curve]"},
      {"smiles": "CCNC(=O)c1nc[nH]c1C(=O)NCC", "Potency": "inactive"},
      {"smiles": "O=C1NCCN/C1=C\\C(=O)c1ccc(F)cc1", "Potency": "inactive"},
      {"smiles": "CCOC(=O)c1c(C)oc2ncnc(Nc3ccc(OC)cc3OC)c12", "Potency": "inactive"},
      {"smiles": "Cc1ccc2oc(=O)c3cc(C(=O)NCCCN4CCc5ccccc5C4)sc3c2c1", "Potency": "inconclusive: 89.1 µM [inhibitor, single point]"},
      {"smiles": "O=C1C(=O)N(Cc2cccnc2)C(c2ccccn2)/C1=C(/O)c1ccccc1", "note": "(stereo not given)", "Potency": "inconclusive: 89.1 µM [inhibitor, single point]"},
      {"smiles": "CCN(CC(=O)Nc1c(C(=O)OC)[nH]c2ccc(C)cc12)c1ccc2c(c1)OCO2", "Potency": "active: 39.8 µM"},
      {"smiles": "COc1ccc(CCC(=O)NCC(c2ccco2)N2CCc3ccccc32)cc1", "note": "(stereo not given)", "Potency": "inconclusive: 56.2 µM [inhibitor, partial curve]"},
      {"smiles": "CC(C)c1ccc(OCC(O)CN2CCN(c3ccccc3)CC2)cc1", "note": "(stereo not given)", "Potency": "active: 56.2 µM"},
      {"smiles": "Fc1ccc(CNC(=S)NCc2cccc(Cl)c2)cc1", "Potency": "inactive"},
      {"smiles": "O=C1c2ccccc2C(O)(c2ccccc2)N1CCc1ccccc1", "note": "(stereo not given)", "Potency": "inactive"},
      {"smiles": "CCOc1ccc(NC(=O)C(=O)c2cc(C)n(-c3cc(C)cc(C)c3)c2C)cc1", "Potency": "inconclusive: 79.4 µM [inhibitor, single point]"},
      {"smiles": "COc1cccc(CNC(=O)c2ccccc2SCC(=O)N2CCCC2)c1", "Potency": "inactive"},
      {"smiles": "Cn1nc([N+](=O)[O-])c2c(-c3nc4ccccc4s3)c(N)n(C3CCCCC3)c2c1=O", "Potency": "inconclusive: 63.1 µM [inhibitor, partial curve, poor fit]"},
      {"smiles": "CC(=O)c1ccc(NC(=O)Nc2ccncc2)cc1", "Potency": "inconclusive: 89.1 µM [inhibitor, partial curve, poor fit]"},
      {"smiles": "Cc1ccc(S(=O)(=O)c2nc(S(=O)(=O)c3ccc(C)cc3)c(N3CCN(CCO)CC3)s2)cc1", "Potency": "inconclusive: 50.1 µM [inhibitor, partial curve]"},
      {"smiles": "O=C(Cn1c(=O)cnc2ccccc21)NC1CCC(O)CC1", "note": "(stereo not given)", "Potency": "inactive"},
      {"smiles": "COc1ccc(NC(=O)c2cccc(-n3c(C)ccc3C)c2)c(OC)c1", "Potency": "inconclusive: 89.1 µM [inhibitor, single point]"},
      {"smiles": "COCCCN1C(=O)C(O)=C(C(=O)c2ccco2)C1c1cccc(Br)c1", "note": "(stereo not given)", "Potency": "inconclusive: 100 µM [inhibitor, single point]"},
      {"smiles": "Cc1ccc(-n2cc(C(=O)Oc3cccc(C)c3)c3ccccc3c2=O)cc1", "Potency": "inactive"},
      {"smiles": "COc1cccc(/C=C2\\SC(=S)N(CCC(=O)N3CCCCC3CCO)C2=O)c1", "note": "(stereo not given)", "Potency": "active: 31.6 µM"},
      {"smiles": "Cc1ccc(/C=C2\\SC(=S)N(C3CCS(=O)(=O)C3)C2=O)o1", "note": "(stereo not given)", "Potency": "active: 39.8 µM"},
      {"smiles": "C/C=C\\C(=O)Nc1cccc(C2=NOC3(C2)C[C@@H](C(N)=O)N(C(=O)CC(c2ccccc2)c2ccccc2)C3)c1", "note": "(stereo not given in full)", "Potency": "inconclusive: 70.8 µM [inhibitor, single point]"},
      {"smiles": "CCN1CCN(Cc2ccc(NC(=O)c3cc(NC(=O)c4cc(-c5ccc(OC)cc5)n[nH]4)cc(OC)c3)cc2C(F)(F)F)CC1", "Potency": "inconclusive: 50.1 µM [inhibitor, partial curve]"},
      {"smiles": "COc1ccc(NC(=O)c2c(NCc3sccc3C)sc3c2CCCC3)c(OC)c1", "Potency": "inconclusive: 17.8 µM [inhibitor, full curve]"},
      {"smiles": "CCc1nn2c(=O)cc(COC(=O)CNC(=O)COc3ccc(C)cc3)nc2s1", "Potency": "inactive"},
      {"smiles": "O=C(Nc1ccc(Nc2ccccc2)cc1)C1CC1", "Potency": "inconclusive: 50.1 µM [inhibitor, partial curve]"},
      {"smiles": "COc1cccc(C(C)NC(=S)NCc2ccc(F)cc2)c1", "note": "(stereo not given)", "Potency": "inconclusive: 89.1 µM [inhibitor, single point]"},
      {"smiles": "CCOc1ccc(NC(=O)c2c(NC(=O)CNCCN3CCOCC3)sc3c2CCC3)cc1", "Potency": "active: 44.7 µM"},
      {"smiles": "CC1=CC(C)(C)Nc2ccc(Cc3ccc4c(c3)C(C)=CC(C)(C)N4)cc21", "Potency": "active: 14.1 µM"},
      {"smiles": "CCN(CC)P(=O)(Nc1ccc(C)cc1Br)c1ccc(N(C)C)cc1NC(=O)c1ccco1", "note": "(stereo not given)", "Potency": "inconclusive: 28.2 µM [inhibitor, partial curve]"},
      {"smiles": "CCOc1ccc(N2C(=O)CC(SCCN)C2=O)cc1", "note": "(stereo not given)", "Potency": "inactive"},
      {"smiles": "Oc1[nH]c2ccccc2c1N=Nc1ccccc1", "Potency": "inconclusive: 89.1 µM [inhibitor, single point]"},
      {"smiles": "COc1ccc(-c2nc[nH]c2[N+](=O)[O-])cc1", "Potency": "inconclusive: 79.4 µM [inhibitor, single point]"},
      {"smiles": "CC(C)(C)c1ccc(Oc2ccc(NC(=O)C3CC=CCC3C(=O)O)cc2)cc1", "note": "(stereo not given)", "Potency": "inconclusive: 11.2 µM [inhibitor, partial curve]"},
      {"smiles": "Clc1ccc(OCCOCCNCc2ccccc2)cc1Cl", "Potency": "inconclusive: 89.1 µM [inhibitor, single point]"},
      {"smiles": "CCOC(=O)c1[nH]c(CN2CCN(c3ccc(OC)cc3)CC2)c(C(=O)OCC)c1C", "Potency": "active: 14.1 µM"},
      {"smiles": "Cc1ccc(NC(=O)CCC(=O)NNC(=O)c2cccs2)c(C)c1", "Potency": "inactive"},
      {"smiles": "CCOc1cc(C2CC(=O)NC3=C2C(=O)C(C(=O)OC)C(C)C3)cc(Cl)c1O", "note": "(stereo not given)", "Potency": "inconclusive: 89.1 µM [inhibitor, single point]"},
      {"smiles": "CC(C)(SC(=S)N1CCOCC1)C(=O)O", "Potency": "inconclusive: 89.1 µM [inhibitor, single point]"},
      {"smiles": "Cc1ccc(-c2csc(NC(=O)C3=COCCO3)n2)cc1C", "Potency": "inconclusive: 70.8 µM [inhibitor, single point]"},
      {"smiles": "COc1nccnc1NS(=O)(=O)c1ccc(NCc2ccccc2O)cc1", "Potency": "inactive"},
      {"smiles": "COc1ccc(C2/C(=C(\\O)c3ccc(OC)c(Cl)c3)C(=O)C(=O)N2CCN(C)C)cc1", "note": "(stereo not given)", "Potency": "inactive"},
      {"smiles": "Cc1cccnc1CN1CCN(C(=O)CCc2nnc(CCc3ccccc3)o2)CC1", "Potency": "inconclusive: 89.1 µM [inhibitor, single point]"},
      {"smiles": "CN(CC(=O)Nc1ccc(N2CCOCC2)cc1)C(=O)CCc1ccccc1Cl", "Potency": "inconclusive: 79.4 µM [inhibitor, single point]"},
      {"smiles": "COc1cc(NS(=O)(=O)c2ccc(NC(=O)c3ccc(C)o3)cc2)nc(OC)n1", "Potency": "inconclusive: 100 µM [inhibitor, single point]"},
      {"smiles": "Cc1ccc(C(=O)N/C(=C\\c2ccc(-c3ccccc3[N+](=O)[O-])o2)C(=O)NCCCN(C)C)cc1", "Potency": "inconclusive: 50.1 µM [inhibitor, partial curve]"},
      {"smiles": "CC(C)N1CC(O)=C(c2nc3ccccc3c(=O)[nH]2)C1=N", "Potency": "inactive"},
      {"smiles": "O=C(c1ccco1)N1CCN(CC(O)Cn2c3ccccc3c3ccccc32)CC1", "note": "(stereo not given)", "Potency": "inconclusive: 35.5 µM [inhibitor, single point]"},
      {"smiles": "COc1ccc(CN2CCN(c3cccc(C)c3C)CC2)cc1OC", "Potency": "active: 56.2 µM"},
      {"smiles": "Cc1ccc(SCC(=O)Nc2ccc(C(=O)Nc3ccc(O)cc3)cc2)cc1", "Potency": "inconclusive: 50.1 µM [inhibitor, partial curve]"},
      {"smiles": "COc1ccc(CNC2CCCCC2C)c(OC)c1", "note": "(stereo not given)", "Potency": "active: 56.2 µM"},
      {"smiles": "CN1CCN(/N=C/c2ccc(N(c3ccccc3)c3ccccc3)cc2)CC1", "Potency": "active: 35.5 µM"}
    ]}
  ]
}
